Target: T1, biotinylated truncated STAT6 (123-632)-avi (Homo sapiens, UniProt P42226)
T1 sequence (P42226 123-632 limits assumed): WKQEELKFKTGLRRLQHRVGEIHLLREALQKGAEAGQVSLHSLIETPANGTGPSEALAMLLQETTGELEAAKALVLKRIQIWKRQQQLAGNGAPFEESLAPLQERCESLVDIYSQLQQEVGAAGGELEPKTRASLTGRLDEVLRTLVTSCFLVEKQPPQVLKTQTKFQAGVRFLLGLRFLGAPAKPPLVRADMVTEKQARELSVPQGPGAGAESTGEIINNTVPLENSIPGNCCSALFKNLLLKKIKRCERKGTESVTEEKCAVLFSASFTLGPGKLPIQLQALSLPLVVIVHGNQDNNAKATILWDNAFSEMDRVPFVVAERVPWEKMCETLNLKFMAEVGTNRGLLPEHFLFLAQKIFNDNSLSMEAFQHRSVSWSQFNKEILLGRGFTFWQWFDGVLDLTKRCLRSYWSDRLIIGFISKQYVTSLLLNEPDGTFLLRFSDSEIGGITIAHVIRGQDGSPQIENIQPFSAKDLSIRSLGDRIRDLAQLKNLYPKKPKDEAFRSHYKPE
Assay: Homogenous Time-Resolved Fluorescence (HTRF) binding assay
Conditions: 0.15 nM biotinylated truncated STAT6 (123-632)-avi, 20 nM fluorescein-labeled probe

SMILES	IC50 (30 minutes at room temperature) [µM]	IC50 (30 minutes room temperature) [µM]
COc1cc(F)c(F)cc1-c1cc(C2=CCCN(C(=O)CCn3ccnn3)C2)c(F)c2[nH]c(C(=O)N3CCN(C4CC4)CC3)cc12 [Example I-604]	< 0.1	
COc1cc(F)c(F)cc1-c1cc(C2=CCCN(C(=O)CCn3ccnn3)C2)c(F)c2[nH]c(C(=O)N3CCN(c4ccccc4OC)CC3)cc12 [Example I-600]	< 0.1	
COc1cc(F)cnc1N1CCN(C(=O)c2cc3c(-c4ccc(OCC5CC5)nc4)cc(C4=CCCN(C(=O)CCn5ccnn5)C4)c(F)c3[nH]2)CC1 [Example I-1164]	0.1 to 1	
CN(C)C(=O)c1cc2ccc(C3=CCCN(C(=O)NCc4cccc(C(N)=O)c4)C3)c(F)c2[nH]1 [Example I-1328]		0.1 to 1
COc1cc(F)cnc1N1CCN(C(=O)c2cc3c(-c4ccc(C5CC5)cc4)cc(C4=CCCN(C(=O)CCn5ccnn5)C4)c(F)c3[nH]2)CC1 [Example I-1157]	< 0.1	
CCc1ccncc1-c1cc(C2=CCCN(C(C)=O)C2)c(F)c2[nH]c(C(=O)N3CCN(c4ncccc4OC)CC3)cc12 [Example I-619]	0.1 to 1	
COc1ccccc1-c1cc(C2=CCCN(C(=O)CCn3ccnn3)C2)c(F)c2[nH]c(C(=O)N3CCN(c4nnc(C)o4)CC3)cc12 [Example I-1361]		< 0.1
CC(=O)N1CCC=C(c2cc(-c3ccccc3OC(F)(F)F)c3cc(C(=O)N(C)C)[nH]c3c2F)C1 [Example I-1559]		0.1 to 1
CN(C)C(=O)c1cc2ccc(C3=CCCN(C(=O)CCc4ccon4)C3)cc2[nH]1 [Example I-20]	> 100	
COc1ccccc1-c1cc(C2=CCCN(C(=O)CCn3ccnn3)C2)c(F)c2[nH]c(C(=O)N3CCSCC3)cc12 [Example I-1548]		< 0.1
COc1ccccc1-c1cc(C2=CCCN(C(=O)CCn3ccnn3)C2)c(F)c2[nH]c(C(=O)N3CCC4CC43)cc12 (stereo not drawn) [Example I-1011]	< 0.1	
COc1ccccc1-c1cc(C2CN(C(=O)CCn3ccnn3)CC(F)(F)C2)c(F)c2[nH]c(C(=O)N3Cc4cnn(C)c4C3)cc12 (stereo not drawn) [Example I-512]	< 0.1	
COc1cc(F)cnc1N1CCN(C(=O)c2cc3c(-c4ccc(C(F)(F)F)cc4CO)cc(C4=CCCN(C(=O)CCn5ccnn5)C4)c(F)c3[nH]2)CC1 [Example I-1167]	< 0.1	
CN(C)C(=O)c1cc2ccc(C3=CCCN(C(=O)[C@@H]4C[C@H]4c4ccn(C)n4)C3)cc2[nH]1 [Example I-11]	10 to 100	
COc1cnccc1-c1cc(C2=CCCN(C(=O)CCn3ccnn3)C2)c(F)c2[nH]c(C(=O)N3CCN(c4ncccc4OC)CC3)cc12 [Example I-366]	< 0.1	
COc1ccccc1-c1cc(C2=CCCN(C(=O)CCn3ccnn3)C2)c(F)c2[nH]c(C(=O)N3CCN(c4cnc(N5CCSCC5)nc4)CC3)cc12 [Example I-1428]		< 0.1
COc1ccccc1-c1cc(C2=CCCN(C(=O)CCn3ccnn3)C2)c(F)c2[nH]c(C(=O)N3CCN(c4nccc5ccncc45)CC3)cc12 [Example I-355]	< 0.1	
CC(=O)OCC(C(=O)N1CCC=C(c2ccc3cc(C(=O)N(C)C)[nH]c3c2)C1)c1ccccc1 (stereo not drawn) [Example I-73]	10 to 100	
CN(C)C(=O)c1cc2ccc(C3=CCCN(C(=O)CCn4cc(C(N)=O)cn4)C3)c(F)c2[nH]1 [Example I-1230]		1 to 10
COCCCOc1ccc(-c2cc(C3=CCCN(C(=O)CCn4ccnn4)C3)c(F)c3[nH]c(C(=O)N4CCN(c5ncc(F)cc5OC)CC4)cc23)cc1 [Example I-1112]	< 0.1	
COc1ccccc1-c1cc(C2=CCCN(C(=O)[C@H]3Cc4ccccc4CN3C=O)C2)cc2cc(C(=O)N(C)C)oc12 [Example I-839]	< 0.1	
COc1ccccc1-c1cc(C2=CCCN(C(=O)CCn3ccnn3)C2)c(F)c2[nH]c(C(=O)N3CCN(CC(=O)NC(C)C)CC3)cc12 [Example I-1200]	< 0.1	
COc1ccccc1-c1cc(C2=CCCN(C(=O)CCn3ccnn3)C2)c(F)c2[nH]c(C(=O)N3CC4CN(c5ncccc5OC)CC4C3)cc12 (stereo not drawn) [Example I-1035]	0.1 to 1	
COc1c(F)cccc1-c1cc(C2=CCCN(C(=O)CCn3ccnn3)C2)cc2cc(C(=O)N(C)C)oc12 [Example I-1076]	< 0.1	

— patent publication US20250214977A1, “STAT6 INHIBITORS AND USES THEREOF” (Kymera Therapeutics, Inc., priority 2024, published 2025)
